PubChem BioAssay AID925 (National Center for Advancing Translational Sciences (NCATS), 2007)
About 40 (0.06%) of roughly 65,000 compounds were called active. Inconclusive results, whose numbers are uncertain, are shown with a selection of clear calls. The call rests on the fitted dose curve; in most records, active means well fitted activation curve with a large enough effect; inconclusive means small, poorly fitted or top-dose-only effect; inactive means flat fitted curve, though single readings scatter. No potency is given beside an inconclusive call; the fits are too rough.
Potency means the concentration at half of the fitted maximal effect.

Assay: qHTS Assay for Modulators of Hemoglobin Beta Chain Splicing; on activation: 0% is about no effect
Conditions: HBB splicing reporter cell assay, EGFP reporter with mutant IVS2-654 intron; Potency: activation; activation: at 46.1 µM (top of the series), normalised to 500 nM splice-correcting PNA
Procedure, shortened: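 Compounds were applied for 2 days to HeLa EGFP-654 cells, 500/well in Optimem with 2% FCS. The reporter's EGFP is disrupted by mis-splicing of beta-globin intron IVS2-654. Readout: summed well GFP fluorescence from 488 nm laser scanning; reference was 500 nM antisense […] 654 PNA.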
With COc1ccc(CC(=O)Nc2ccc(-c3nnc(-c4ccccc4)o3)cc2)cc1OC the Potency was “inactive”.
For Cc1ccccc1N1C(=O)c2cccc3c(N(C)CCO)ccc(c23)C1=O, the Potency was active: 20 µM.
With CCn1c(Cc2ccccc2)nnc1SCC(=O)Nc1ccc(N2CCOCC2)c(Cl)c1 the Potency was “inactive”.
For CN(C)c1ccc(/C=C/c2cc[n+]([O-])cc2)cc1, the Potency was inconclusive [activator, single point].
With Cc1ccccc1Cn1c(CN2CCN(c3ccc(F)cc3)CC2)nc2c1c(=O)n(C)c(=O)n2C the Potency was inconclusive [activator, partial curve].
In the case of N=c1oc2c3c4c(cc2cc1C(=O)Nc1ccccc1)CCCN4CCC3, the Potency is reported as active: 3.16 µM.
For Nc1nc(Sc2ccc([N+](=O)[O-])c3nonc23)c2[nH]cnc2n1, the Potency was active: 3.16 µM.
In the case of Cc1ccnc(NC(=O)CCCOc2cc(=O)n(C)c3ccccc23)c1, the Potency is reported as inconclusive [activator, full curve].
In the case of NC1=NC2(CCCCC2)n2c(nc3ccccc32)N1, the Potency is reported as “inactive”.
For CCNc1ncc2nc(-c3cccs3)c(=O)n(CCc3ccccc3)c2n1, the activation was inconclusive: 12.4% [activator].
For COCCNc1nc(-c2ccc(N(C)C)cc2)nc2ccccc12, the Potency was inconclusive [activator, single point].
In the case of O=C(COc1ccc(S(=O)(=O)NC2CCCCC2)cc1Cl)NCC1CCCO1 (stereo not given), the Potency is reported as “inactive”.
For O=C(Nc1ccc2c(c1)CCC2)c1cnccn1, the Potency was “inactive”.
For CC(C)C[C@@H](CC(=O)N[C@@H](CCCN)CC(=O)N[C@@H]1CCNC[C@H]1C(=O)N[C@H](CC(=O)N[C@@H](CCC(=O)O)CC(=O)O)Cc1c[nH]c2ccccc12)NC(=O)[C@@H]1CCCC[C@H]1N, the Potency was “inactive”.
For Cc1ccccc1-c1ccc2ncnc(NCCN3CCOCC3)c2c1, the Potency was “inactive”.
In the case of Cc1ccc(CNc2ccc3c(c2)OCO3)cc1, the Potency is reported as inconclusive [activator, single point].
In the case of Cc1cc(=O)oc2cc(OC3C=CC(C#CC(C)(C)C)OC3CO)ccc12 (stereo not given), the activation is reported as inactive: 4% [at 9.22 µM, normalised to 500 nM splice-correcting PNA].
In the case of CC(C)(C)C(=O)NC(c1ccc(Cl)cc1)[C@]1(C)C[C@H]1C1CCCCC1 (stereo not given in full), the activation is reported as inconclusive: 13.2% [activator].
For COc1cccc(Nc2ncc3nc(-c4ccc(Cl)cc4)c(=O)n(CCC#N)c3n2)c1, the Potency was active: 10 µM.
In the case of Cn1cc(-c2nc3cncnc3n(Cc3ccc(F)cc3)c2=O)c2ccccc21, the Potency is reported as inconclusive [activator, single point].
In the case of CCOc1ccc(C2C(C#N)=C(N)SC(N)=C2C#N)c(OCC)c1, the Potency is reported as inconclusive [activator, single point].
With COc1cc(/C=C/C(=O)CC(=O)/C=C/c2ccc(O)c(OC)c2)ccc1O the Potency was inconclusive [activator, single point].
In the case of COc1ccc(C2C(C(C)=O)=C(C)N=c3s/c(=C/c4ccc5c(c4)OCO5)c(=O)n32)cc1 (stereo not given), the Potency is reported as inconclusive [activator, single point].
With Nc1ccc2c3c(cccc13)C(=O)NC2=O the Potency was active: 31.6 µM.
With N#Cc1cc2ccccc2nc1SCc1ccccn1 the Potency was inconclusive [activator, single point].
In the case of O=C(NC1CCCC1)c1sc(=S)n2c1[nH]c(=O)c1ccccc12, the Potency is reported as “inactive”.
In the case of COc1ccc(OC)c(C2CC(=O)c3c([nH]c(C(=O)OC(C)C)c3C)C2)c1 (stereo not given), the Potency is reported as “inactive”.
In the case of Cc1cccc2cc(C#N)c(SCC(=O)N3CC(=O)Nc4ccccc43)nc12, the Potency is reported as inconclusive [activator, single point].
For COc1cccc(Nc2ncc3nc(-c4cn(C)c5ccccc45)c(=O)n(CCC#N)c3n2)c1, the Potency was inconclusive [activator, single point].
In the case of Oc1cccc(C(=S)N2CCN(Cc3ccccc3)CC2)c1, the Potency is reported as inconclusive [activator, partial curve].
With N#C/C(=C/c1ccc(N2CCCCCC2)o1)c1ccc(F)cc1 the Potency was inconclusive [activator, single point].
In the case of COC(=O)[C@@H]1[C@@H]2C[C@H]3c4[nH]c5cc(OC)ccc5c4CCN3C[C@@H]2C[C@H](OC(=O)c2cc(OC)c(OC)c(OC)c2)[C@H]1OC, the Potency is reported as inconclusive [activator, single point].
With c1ccc(CCc2nn3c(Cn4cnc5ccccc54)nnc3s2)cc1 the Potency was “inactive”.
With CNC(=O)c1c(NC(=O)c2nc3ccccc3s2)sc2c1CCC2 the Potency was inconclusive [activator, partial curve].
With OC[C@H](CCc1c[nH]c2ccccc12)c1c[nH]c2ccccc12 the activation was inactive: 0.535% [at 9.22 µM, normalised to 500 nM splice-correcting PNA].
In the case of CCNc1ncc2nc(-c3cc(F)cc(F)c3)c(=O)n(-c3ccc(OC)cc3)c2n1, the Potency is reported as inconclusive [activator, partial curve].
With COCCn1c(=O)c(CCc2ccccc2)nc2cnc(Nc3cccc(OC)c3)nc21 the Potency was inconclusive [activator, single point].
For CN(C)c1ccc(-c2nc(NCCN3CCOCC3)c3ccccc3n2)cc1, the Potency was inconclusive [activator, single point].
In the case of CCCNC(=O)OC[C@H]1O[C@@H](CCO/N=C2/[C@H]3O[C@@H]3[C@@H](O)[C@H]3[C@H]2CCn2c(=O)n(-c4ccccc4)c(=O)n23)C=C[C@@H]1Oc1ccc(OC)cc1, the activation is reported as inactive: 0.354% [at 9.22 µM, normalised to 500 nM splice-correcting PNA].
For COc1cccc(C2C(C)CCC3C(=O)N(C)C(C(C)C)C(=O)N32)c1 (stereo not given), the activation was inactive: 1.58% [at 9.22 µM, normalised to 500 nM splice-correcting PNA].
For CN(C)c1ccc(/C=C/c2ccncc2)cc1, the Potency was inconclusive [activator, single point].
For c1coc(-c2nc3nc4ccccc4nc3n2CC2CCCO2)c1 (stereo not given), the Potency was inconclusive [activator, single point].
With O=C(c1cccc(F)c1)N1CCC2(CCCN(c3cccc(-c4ccccc4)c3)C2)CC1 the activation was inconclusive: 13.6% [activator].
In the case of CC(C)c1nnc(NC(=O)CCC(=O)NCc2ccc3c(c2)OCO3)s1, the Potency is reported as inconclusive [activator, single point].
In the case of CCNc1ncc2nc(-c3cccs3)c(=O)n(-c3ccccc3)c2n1, the Potency is reported as active: 12.6 µM.
In the case of Cc1c(=O)n(OCc2ccccc2F)c2ccccc2[n+]1[O-], the Potency is reported as active: 20 µM.
With N#CCCn1c(=O)c(CCc2ccccc2)nc2cnc(N3CCOCC3)nc21 the Potency was “inactive”.
In the case of CCOc1ccccc1N1CCN(S(=O)(=O)CC)CC1, the activation is reported as inactive: -0.66% [at 9.22 µM, normalised to 500 nM splice-correcting PNA].
With C[N+]1(CCC(=O)c2ccco2)CC2CCC(CC2)C1 (stereo not given) the activation was inactive: 0.424% [at 9.22 µM, normalised to 500 nM splice-correcting PNA].
With CCOc1cc(C2C(C#N)=C(N)SC(N)=C2C#N)ccc1OCCN1CCOCC1 the Potency was inconclusive [activator, single point].
